About 220 (0.56%) of roughly 39,000 compounds showed activity. The list shows a part of the results.
The compounds below were run on Escherichia coli K-12 BW25113 (assay: relative growth (OD600 normalised to plate interquartile mean) (fraction); higher = less growth inhibition, active = 0.2 or less). Conditions: 50 µM; LB; incubation time: overnight (16-24 h).
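Note: static incubation at 37 °C against the wild-type strain, values averaged over two biological replicates.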

| Structure (SMILES) | relative growth |
| --- | --- |
| COc1ccc(S(=O)(=O)N(C)C[C@@H]2OCCCC[C@H](C)Oc3ccc(NC(=O)C4CCCCC4)cc3C(=O)N([C@H](C)CO)C[C@@H]2C)cc1 | inactive: 1.03 |
| CO[C@@H]1CN(C)C(=O)c2ccc(NS(C)(=O)=O)cc2OC[C@H](C)N(C(=O)C2CCCCC2)C[C@H]1C | inactive: 0.991 |
| C[C@@H]1CCCCO[C@H](CN(C)S(=O)(=O)c2ccc(Cl)cc2)[C@@H](C)CN([C@@H](C)CO)C(=O)c2cc(NC(=O)Nc3ccccc3)ccc2O1 | inactive: 1.04 |
| O=C(CCCCCCC(=O)Nc1ccccc1O)N/N=C/[C@H](O)[C@@H](O)[C@@H](O)[C@H](O)C(=O)O | inactive: 1.01 |
| C[C@H](CO)N1C[C@H](C)[C@H](CN(C)S(=O)(=O)c2ccc(C(F)(F)F)cc2)OCc2ccccc2-c2c(n(C)c3ccccc23)C1=O | inactive: 1.03 |
| C[C@H](CO)N1C[C@H](C)[C@@H](CN(C)S(C)(=O)=O)Oc2c(NC(=O)CCCCCC(=O)Nc3ccccc3N)cccc2C1=O | inactive: 0.974 |
| COc1ccc(S(=O)(=O)N[C@@H]2C=C[C@H](CC(=O)N3CCN(c4ccccc4)CC3)O[C@@H]2CO)cc1 | inactive: 0.992 |
| C[C@@H]1CN([C@H](C)CO)C(=O)c2cccc(NS(=O)(=O)c3cn(C)cn3)c2O[C@@H]1CN(C)Cc1ccc(C(=O)Nc2ccccc2N)cc1 | inactive: 0.995 |
| Cn1c(=O)[nH]c(=O)c2c1ncn2CCNCc1ccco1 | inactive: 0.913 |
| C[C@@H]1CN([C@@H](C)CO)C(=O)c2cccc(NC(=O)c3cnccn3)c2O[C@H]1CN(C)Cc1ccc(C(=O)O)cc1 | inactive: 0.993 |
| C[C@@H]1CCCCO[C@@H](CN(C)C(=O)CCCN(C)C)[C@H](C)CN([C@@H](C)CO)C(=O)c2cc(NC(=O)Nc3ccc(C(F)(F)F)cc3)ccc2O1 | inactive: 0.954 |
| C[C@@H]1CN([C@@H](C)CO)C(=O)c2cc(NC(=O)Cc3ccccc3)ccc2O[C@@H](C)CCCCO[C@@H]1CN(C)C(=O)c1ccccc1 | inactive: 0.98 |
| CC(C)CC#Cc1ccc2c(c1)O[C@H](CN(C)C(=O)c1ccncc1)[C@H](C)CN([C@H](C)CO)S2(=O)=O | inactive: 0.966 |
| COc1ccc(CN(C)C[C@@H]2OCCCC[C@H](C)Oc3ccc(NC(=O)Nc4cccc5ccccc45)cc3C(=O)N([C@@H](C)CO)C[C@@H]2C)cc1 | inactive: 0.998 |
| CC(C)c1nc(C(=O)N2CCC[C@@H](N)CC2)cs1 | inactive: 0.976 |
| Cc1noc(C)c1NC(=O)N(C)C[C@@H]1Oc2ccc(NS(=O)(=O)c3c(C)noc3C)cc2CC(=O)N([C@@H](C)CO)C[C@H]1C | inactive: 0.972 |
| CCCC(=O)Nc1ccc2c(c1)C(=O)N(C)C[C@@H](OC)[C@H](C)CN(C(=O)Cc1cccnc1)[C@H](C)CO2 | inactive: 1.01 |
| Cc1noc(C)c1NC(=O)Nc1cccc2c1O[C@H](CN(C)C(=O)Nc1ccc(C(F)(F)F)cc1)[C@H](C)CN([C@H](C)CO)C2=O | inactive: 0.992 |
| CN1CCN(C(=O)C[C@H]2CC[C@H]3[C@@H](COc4ccc(NC(=O)C5CCCCC5)cc4C(=O)N3C)O2)CC1 | inactive: 0.997 |

| Structure (SMILES) | relative growth |
| --- | --- |
| C[C@@H]1CN([C@@H](C)CO)C(=O)CCCn2cc(nn2)CO[C@@H]1CN(C)S(C)(=O)=O | inactive: 0.987 |
| COc1ccccc1C#Cc1cnc2c(c1)C(=O)N([C@@H](C)CO)C[C@H](C)[C@@H](CN(C)C(=O)c1ccc3c(c1)OCO3)O2 | inactive: 1.03 |
| COc1cccc(S(=O)(=O)N(C)C[C@@H]2Oc3ncc(C#CCC(C)C)cc3C(=O)N([C@@H](C)CO)C[C@H]2C)c1 | inactive: 1.04 |
| C[C@H]1CN([C@@H](C)CO)C(=O)c2cc(/C=C/c3ccccc3)cnc2O[C@@H]1CN(C)C(=O)Nc1ccc(C(F)(F)F)cc1 | inactive: 1.02 |
| C[C@H](CO)N1C[C@H](C)[C@@H](CN(C)Cc2ccc(C(=O)Nc3ccccc3N)cc2)Oc2c(NS(=O)(=O)c3ccc(Cl)cc3)cccc2C1=O | inactive: 1.02 |
| C[C@@H]1CN([C@@H](C)CO)C(=O)c2cc(NC(=O)CCN3CCOCC3)ccc2O[C@H]1CN(C)CC1CCCCC1 | inactive: 0.971 |
| Cc1noc(C)c1NC(=O)Nc1ccc2c(c1)C(=O)N([C@H](C)CO)C[C@H](C)[C@H](CN(C)S(=O)(=O)c1ccccc1)O2 | inactive: 0.999 |
| C[C@@H]1CN([C@H](C)CO)C(=O)c2cccc(NS(=O)(=O)c3ccc(Cl)cc3)c2O[C@@H]1CN(C)Cc1ccc(-c2ccccc2)cc1 | inactive: 1.06 |
| C[C@@H]1CN([C@@H](C)CO)C(=O)Cc2cc(NC(=O)Cn3cnnn3)ccc2O[C@@H]1CN(C)S(C)(=O)=O | inactive: 0.99 |
| CO[C@H]1CN(C)C(=O)c2cc(NS(C)(=O)=O)ccc2OC[C@H](C)N(C(=O)c2ccc3c(c2)OCO3)C[C@H]1C | inactive: 0.963 |
| CCCCCCCCCCCCC[N+](C)(C)Cc1ccccc1.O.[Cl-] | active: 0.0544 |
| C[C@@H]1CCCCO[C@@H](CN(C)Cc2ccc(Cl)c(Cl)c2)[C@H](C)CN([C@@H](C)CO)C(=O)c2cc(NC(=O)Nc3ccccc3)ccc2O1 | inactive: 0.994 |
| CCC(=O)N[C@@H]1C=C[C@H](CC(=O)OC)O[C@H]1CO | inactive: 1.01 |
| C[C@@H]1CCCCO[C@@H](CN(C)Cc2ccc3c(c2)OCO3)[C@H](C)CN([C@@H](C)CO)C(=O)c2cc(NC(=O)Nc3cccc4ccccc34)ccc2O1 | inactive: 0.991 |
| C[C@@H]1CCCCO[C@@H](CN(C)Cc2ccc3c(c2)OCO3)[C@H](C)CN([C@@H](C)CO)C(=O)c2cc(NC(=O)CCC(F)(F)F)ccc2O1 | inactive: 1.03 |
| C[C@H](CO)N1C[C@H](C)[C@H](CN(C)S(=O)(=O)c2cn(C)cn2)Oc2ncc(C#Cc3cccc(F)c3)cc2C1=O | inactive: 0.965 |
| CN1CCN(C(=O)C[C@@H]2CC[C@H]3[C@@H](COC[C@H](O)CN3C(=O)C3CC3)O2)CC1 | inactive: 0.964 |
| C[C@@H]1CCCCO[C@@H](CN(C)S(=O)(=O)c2cccs2)[C@@H](C)CN([C@H](C)CO)C(=O)c2cc(NS(=O)(=O)c3ccc(Cl)cc3)ccc2O1 | inactive: 0.969 |

From the supplement of paper PMC9446081
